Test results as given in PubChem BioAssay AID504332 (National Center for Advancing Translational Sciences (NCATS), 2011).
The whole screen tested about 350,000 compounds, of which about 31,000 (8.9%) were called active. The inconclusive results got no clear call from the source; some entries with a clear call stand among them for comparison. The call rests on the fitted dose curve; in most records, active means well fitted inhibition curve with a large enough effect; inconclusive means small, poorly fitted or top-dose-only effect; inactive means no such curve, though single readings can be large or run the other way. Potencies of inconclusive entries are doubtful fits and often do not repeat.

These compounds were tested against Histone-lysine N-methyltransferase EHMT2 (Homo sapiens) (UniProt Q96KQ7) (assay: qHTS Assay for Inhibitors of Histone Lysine Methyltransferase G9a). Conditions: G9a H3K9 monomethylation, AlphaScreen, 2 h; activity, negative = inhibition: at 59 µM (top of the series) unless noted.
Method in brief: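 Step 1: enzyme (final 20 nM) with compound, 15 min RT. Step 2: substrate peptide 500 nM and SAM 20 uM, 2 h RT. Step 3: anti-H3K9me1 antibody and AlphaScreen beads, 10 min, then plate read.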
Further: nearly all actives have a fitted effect of over 75% in size.
On the % scale 0 is the no-effect control and ±100 the full control effect; potency means the concentration at half of the fitted maximal effect; tags describe the fitted curve by direction and shape.

Chain of UniProt Q96KQ7 (Q96KQ7 whole entry, looked up): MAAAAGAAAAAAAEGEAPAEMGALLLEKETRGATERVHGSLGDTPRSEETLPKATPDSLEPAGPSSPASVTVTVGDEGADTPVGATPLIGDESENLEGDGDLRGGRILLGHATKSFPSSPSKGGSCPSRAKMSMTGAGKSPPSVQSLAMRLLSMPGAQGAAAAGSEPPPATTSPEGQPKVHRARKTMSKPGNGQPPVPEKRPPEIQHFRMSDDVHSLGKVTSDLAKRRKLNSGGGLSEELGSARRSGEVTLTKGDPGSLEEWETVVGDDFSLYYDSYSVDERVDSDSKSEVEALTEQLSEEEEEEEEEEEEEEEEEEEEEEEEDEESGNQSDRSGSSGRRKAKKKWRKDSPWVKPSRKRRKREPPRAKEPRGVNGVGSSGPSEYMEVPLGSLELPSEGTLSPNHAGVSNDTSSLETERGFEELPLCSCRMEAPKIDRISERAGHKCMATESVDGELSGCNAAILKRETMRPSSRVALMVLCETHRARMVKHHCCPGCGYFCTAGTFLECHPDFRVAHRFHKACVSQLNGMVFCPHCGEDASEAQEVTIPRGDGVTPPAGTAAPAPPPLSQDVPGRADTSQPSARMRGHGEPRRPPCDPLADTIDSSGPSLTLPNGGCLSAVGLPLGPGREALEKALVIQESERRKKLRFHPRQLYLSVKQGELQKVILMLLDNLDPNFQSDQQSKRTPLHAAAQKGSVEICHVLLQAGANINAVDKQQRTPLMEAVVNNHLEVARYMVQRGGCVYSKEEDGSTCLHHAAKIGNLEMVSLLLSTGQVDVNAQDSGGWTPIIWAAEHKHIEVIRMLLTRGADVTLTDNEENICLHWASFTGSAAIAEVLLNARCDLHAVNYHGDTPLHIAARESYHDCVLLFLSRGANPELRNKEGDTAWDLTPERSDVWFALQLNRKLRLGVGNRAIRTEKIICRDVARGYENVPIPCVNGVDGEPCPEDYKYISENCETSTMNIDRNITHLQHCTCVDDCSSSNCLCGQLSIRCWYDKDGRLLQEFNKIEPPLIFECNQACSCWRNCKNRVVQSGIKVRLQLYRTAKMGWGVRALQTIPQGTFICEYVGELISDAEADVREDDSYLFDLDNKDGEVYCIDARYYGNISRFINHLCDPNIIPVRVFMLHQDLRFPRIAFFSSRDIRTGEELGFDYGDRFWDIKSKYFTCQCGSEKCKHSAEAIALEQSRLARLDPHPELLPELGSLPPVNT

**Q.** For O=C(CSC1=NC(=O)C(Cc2ccccc2)C(=O)N1)Nc1ncc(Br)cc1Br (stereo unspecified), which Potency is on record?
**A.** The Potency was “inactive”.

**Q.** For O=C(N/N=C/c1ccc(Cl)cc1Cl)c1ccc2nc[nH]c2c1, which Potency is on record?
**A.** The Potency was active: 70.8 µM.

**Q.** How did the Potency turn out when COc1ccccc1CNC(=O)CCn1c(=O)oc2ccccc21 was run?
**A.** The Potency was inconclusive: 17.8 µM [inhibitor, partial curve, poor fit].

**Q.** For Cc1ccc(C(C(=O)NCC2CCCO2)N(C(=O)c2snc(C(N)=O)c2N)c2ccc(F)cc2)o1 (stereo unspecified), which Potency is on record?
**A.** The Potency was inconclusive: 28.2 µM [inhibitor, partial curve, poor fit].

**Q.** For Cc1ccccc1CNC(=O)c1ccc2nc(SCc3ccc(F)cc3)n(C)c2c1, which Potency is on record?
**A.** Its Potency is inconclusive: 0.316 µM [inhibitor, partial curve, poor fit].

**Q.** Which Potency does the source give for CC1CCC(NC(=O)c2cccc(S(=O)(=O)N3CCN(C)CC3)c2)CC1 (stereo unspecified) here?
**A.** Its Potency is inconclusive: 79.4 µM [inhibitor, partial curve, poor fit].

**Q.** Which Potency does the source give for COC(=O)c1c(NC(=O)c2ccc(S(=O)(=O)N3CCOCC3)cc2)sc2c1CCN(C)C2 here?
**A.** The Potency was inconclusive: 31.6 µM [inhibitor, single point].

**Q.** N/C(=N\O)C1COc2ccccc2O1 (stereo unspecified) was tested. Which Potency did it give?
**A.** Its Potency is inconclusive: 70.8 µM [inhibitor, single point].

**Q.** Which Potency does the source give for CC(=O)c1cc2c(O)c(O)ccc2o1 here?
**A.** Its Potency is active: 3.98 µM.

**Q.** COc1ccccc1NC(=O)CSc1nncn2c1cc1sccc12 was tested. Which Potency did it give?
**A.** The Potency was “inactive”.

**Q.** With CSc1nc(N(CCO)CCO)c2sc3nc(-c4ccco4)c4c(c3c2n1)CCC4 as the compound, how does the Potency read?
**A.** The Potency was active: 12.6 µM.

**Q.** Cc1cc(C(=O)COC(=O)c2ccc[nH]c2=O)c(C)n1-c1ccc(Br)cc1 was tested. Which Potency did it give?
**A.** Its Potency is “inactive”.

**Q.** How did the Potency turn out when COc1ccc(OCc2nnc3n2N=C(c2ccccc2)C(CC(=O)O)S3)cc1 (stereo unspecified) was run?
**A.** Its Potency is active: 1.58 µM.

**Q.** Cc1ccc(S(=O)(=O)N2CC(=NO)C2)cc1 was tested. Which Potency did it give?
**A.** Its Potency is active: 44.7 µM.

**Q.** With CCCCn1c(=NC(=O)c2cccnc2)c(C(=O)OCC)cc2c(=O)n3ccccc3nc21 as the compound, how does the activity, negative = inhibition read?
**A.** Its activity, negative = inhibition is inactive: 0.479% [at 12.7 µM].

**Q.** With CCc1ccccc1NC(=O)CN(c1ccccc1)S(=O)(=O)c1ccsc1C(=O)OC as the compound, how does the Potency read?
**A.** The Potency was “inactive”.

**Q.** With CN(CC(=O)Nc1ccc(Cl)c(C(F)(F)F)c1)C(=O)c1cccc2cccnc12 as the compound, how does the activity, negative = inhibition read?
**A.** Its activity, negative = inhibition is inactive: -0.554% [at 12.7 µM].

**Q.** With CC(=O)Nc1nc(C=C(Cl)Cl)cs1 as the compound, how does the Potency read?
**A.** Its Potency is inconclusive: 6.31 µM [inhibitor, partial curve, poor fit].

**Q.** With Cc1ccc(NC2=C(Cl)C(=O)OC2OC(=O)c2ccccc2)c(C)c1 (stereo unspecified) as the compound, how does the Potency read?
**A.** The Potency was inconclusive: 100 µM [inhibitor, single point].

**Q.** With NC(=O)c1ccc(N=Nc2c(O)c3ccccc3[nH]c2=O)cc1 as the compound, how does the Potency read?
**A.** The Potency was inconclusive: 39.8 µM [inhibitor, partial curve, poor fit].

**Q.** For COc1ccc(OCCC(=O)OCC(=O)NCc2ccccc2OC)cc1, which Potency is on record?
**A.** The Potency was inconclusive: 8.91 µM [inhibitor, full curve].

**Q.** How did the Potency turn out when Cc1ccc(NC(=O)CCc2ccc(C)o2)cc1 was run?
**A.** Its Potency is inconclusive: 79.4 µM [inhibitor, single point].

**Q.** With Cc1nc2[nH]c(=S)n(C)c(=O)c2nc1C as the compound, how does the Potency read?
**A.** The Potency was active: 44.7 µM.

**Q.** For CCN(CC)CCCN1C(=O)C(=O)/C(=C(/O)c2ccccc2)C1c1cc(OC)ccc1OC (stereo unspecified), which Potency is on record?
**A.** Its Potency is inconclusive: 100 µM [inhibitor, single point].

**Q.** With CCC(=O)C1=C(c2ccc(F)cc2)N(C(=O)CC)n2cnnc2S1 as the compound, how does the Potency read?
**A.** Its Potency is inconclusive: 25.1 µM [inhibitor, single point].

**Q.** CN1CCC(OC(=O)COc2ccc(Br)cc2)CC1 was tested. Which Potency did it give?
**A.** Its Potency is active: 44.7 µM.

**Q.** CCc1cc2c(CN3CCN(Cc4ccccc4)CC3)cc(=O)oc2cc1O was tested. Which Potency did it give?
**A.** Its Potency is active: 44.7 µM.

**Q.** With CCOC(=O)c1ccc(NC(=O)C(CC)Sc2nc3ccncc3[nH]2)cc1 (stereo unspecified) as the compound, how does the Potency read?
**A.** The Potency was “inactive”.

**Q.** Which Potency does the source give for CN1CC2CCCC3(C1)C(=O)NC1(CCCCC1)N=C23 (stereo unspecified) here?
**A.** Its Potency is inconclusive: 0.708 µM [inhibitor, full curve, poor fit].

**Q.** With C/C(=N\NC(=O)c1cc(-c2ccccn2)nc2ccccc12)c1cccc([N+](=O)[O-])c1 as the compound, how does the Potency read?
**A.** The Potency was “inactive”.

**Q.** How did the Potency turn out when CN(C)S(=O)(=O)Nc1ccc2c(c1)OCO2 was run?
**A.** The Potency was inconclusive: 89.1 µM [inhibitor, partial curve, poor fit].

**Q.** How did the Potency turn out when N#Cc1c(NC(=O)CSc2nnc(-c3ccco3)n2-c2ccccc2)sc2c1CCC2 was run?
**A.** The Potency was inconclusive: 3.16 µM [inhibitor, single point].

**Q.** Clc1ccc(CSc2ncnc3nc[nH]c23)cc1 was tested. Which Potency did it give?
**A.** The Potency was inconclusive: 3.55 µM [inhibitor, partial curve, poor fit].

**Q.** How did the Potency turn out when Cc1ccc(NC(=O)CN(C)C(=O)c2cccc(S(=O)(=O)N3CCc4ccccc43)c2)cc1 was run?
**A.** Its Potency is inconclusive: 6.31 µM [inhibitor, single point].

**Q.** Which Potency does the source give for Cc1ccc(CN(c2ccc(C(=O)N3CCc4ccccc4C3)cc2)S(C)(=O)=O)cc1 here?
**A.** Its Potency is inconclusive: 79.4 µM [inhibitor, partial curve, poor fit].

**Q.** With Cc1c(Cl)cccc1NC(=O)c1ccc2c(c1)CCCN2S(C)(=O)=O as the compound, how does the Potency read?
**A.** Its Potency is “inactive”.

**Q.** With O=C(CN1CCN(c2ccccn2)CC1)NC1CCCCC1 as the compound, how does the Potency read?
**A.** Its Potency is “inactive”.

**Q.** How did the activity, negative = inhibition turn out when CCOc1ccc(C(=O)N(CN2CCCC2=O)c2cccc(Cl)c2)cc1 was run?
**A.** Its activity, negative = inhibition is inactive: 13% [at 12.7 µM].

**Q.** How did the Potency turn out when C/C(=N\NC(=O)c1nnn(-c2nonc2N)c1C(C)C)c1cc(C)sc1C was run?
**A.** The Potency was “inactive”.

**Q.** For CCOC(=O)C1=C(C)NC(=O)C(C#N)C1c1ccncc1 (stereo unspecified), which Potency is on record?
**A.** Its Potency is “inactive”.

**Q.** How did the Potency turn out when S=c1nc(C2CCCCC2)n(-c2ccccc2)[nH]1 was run?
**A.** Its Potency is active: 3.55 µM.

**Q.** For Cc1ccccc1OCCNc1cc(N2CCN(CCO)CC2)ccc1[N+](=O)[O-], which Potency is on record?
**A.** Its Potency is inconclusive: 28.2 µM [inhibitor, single point].

**Q.** Which Potency does the source give for CC(=O)Nc1ccc(N2C(=O)CC(N3CCSCC3)C2=O)cc1 (stereo unspecified) here?
**A.** Its Potency is inconclusive: 70.8 µM [inhibitor, partial curve].

**Q.** CC[n+]1ccc(C)c2cc(P(=O)(c3ccccc3)c3ccccc3)ccc21 was tested. Which Potency did it give?
**A.** The Potency was inconclusive: 1.58 µM [inhibitor, full curve, poor fit].

**Q.** For CCOc1ccc(-c2nn(-c3ccccc3)cc2C2NC(=O)NC(C)=C2C(=O)OC(C)C)cc1 (stereo unspecified), which Potency is on record?
**A.** Its Potency is inconclusive: 22.4 µM [inhibitor, single point].

**Q.** With C/C(N)=C(/C#N)C(=O)CSc1nnnn1-c1ccccc1 as the compound, how does the Potency read?
**A.** Its Potency is inconclusive: 89.1 µM [inhibitor, partial curve, poor fit].
